According to PubChem BioAssay (NCI):
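In this assay, cells in 96-well plates receive the compound at five concentrations for 48 hours. Endpoints are linearly interpolated between the surrounding concentrations. TGI: concentration producing complete growth inhibition.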 Certain results were filed several times, with different values. Only these are listed. An entry can have further records. Records of one sample usually come from different ranges of test concentrations, not given here; some values may only mark the edge of a range.

System: MDA-MB-468 breast
Assay: NCI-60 cell line screen, 48 h

**Q.** For `Cc1ccnc(Nc2ccc([N+](=O)[O-])c(NCCN3CCOCC3)n2)c1`, which TGI is on record?
**A.** 74.6 nM and 24.2 µM
